About 2,200 (0.71%) of roughly 310,000 compounds showed an effect of 50% or more. The effect is printed as a negative number. The list shows a part of the results.

Sequence of human ether-à-go-go-related gene (hERG) potassium channel (Q12809 whole entry, looked up): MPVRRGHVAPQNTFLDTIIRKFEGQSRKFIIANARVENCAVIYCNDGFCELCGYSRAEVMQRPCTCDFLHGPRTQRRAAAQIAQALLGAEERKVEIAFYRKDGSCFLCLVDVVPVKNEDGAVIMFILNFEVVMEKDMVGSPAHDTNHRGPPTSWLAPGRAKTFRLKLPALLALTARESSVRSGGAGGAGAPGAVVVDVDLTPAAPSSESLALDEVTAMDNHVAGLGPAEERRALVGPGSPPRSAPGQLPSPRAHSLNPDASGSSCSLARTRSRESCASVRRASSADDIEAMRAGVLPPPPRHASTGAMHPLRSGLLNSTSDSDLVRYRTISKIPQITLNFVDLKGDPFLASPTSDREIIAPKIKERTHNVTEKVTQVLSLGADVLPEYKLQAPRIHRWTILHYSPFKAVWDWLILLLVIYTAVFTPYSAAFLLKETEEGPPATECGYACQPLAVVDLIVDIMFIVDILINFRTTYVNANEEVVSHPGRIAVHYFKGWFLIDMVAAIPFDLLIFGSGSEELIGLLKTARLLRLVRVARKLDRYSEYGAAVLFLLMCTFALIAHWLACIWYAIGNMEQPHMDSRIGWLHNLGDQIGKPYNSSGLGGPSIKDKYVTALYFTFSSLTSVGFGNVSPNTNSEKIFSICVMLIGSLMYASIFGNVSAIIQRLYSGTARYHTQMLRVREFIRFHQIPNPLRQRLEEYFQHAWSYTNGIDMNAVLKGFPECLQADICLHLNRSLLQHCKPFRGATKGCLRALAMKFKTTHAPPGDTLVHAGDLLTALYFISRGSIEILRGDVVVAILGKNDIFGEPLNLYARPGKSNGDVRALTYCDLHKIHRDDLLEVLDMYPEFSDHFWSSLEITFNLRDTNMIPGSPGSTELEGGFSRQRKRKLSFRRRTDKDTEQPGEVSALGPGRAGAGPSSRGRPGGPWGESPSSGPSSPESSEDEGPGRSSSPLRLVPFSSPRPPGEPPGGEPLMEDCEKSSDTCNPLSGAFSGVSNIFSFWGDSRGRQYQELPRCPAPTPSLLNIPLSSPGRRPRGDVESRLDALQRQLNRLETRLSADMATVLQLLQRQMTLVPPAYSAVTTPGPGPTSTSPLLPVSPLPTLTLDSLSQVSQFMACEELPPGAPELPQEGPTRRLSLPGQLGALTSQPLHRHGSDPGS

This experiment concerns the target human ether-à-go-go-related gene (hERG) potassium channel (human, UniProt Q12809). As to the kind of experiment: primary screen, population patch clamp on CHO cells stably expressing hERG.
Turning to `CCC1=C(OC(=O)N(CC)CC)N2C(=O)OC(=NCc3ccccc3)[C@]2(C)[C@H]2C1=CC[C@H]1C(=O)N(CC(=O)OC)C(=O)[C@H]12`, the “hERG current change (%, negative = inhibition) at 1uM” value worked out at 15.5%.

Turning to `O=C(Nc1ccccc1)Nc1cc(Cl)cc(Cl)c1`, the “hERG current change (%, negative = inhibition) at 1uM” value was found to be 14.3%.

For `Cn1cnnc1SC/C(O)=C(\C#N)c1nc2ccccc2[nH]1`, the “hERG current change (%, negative = inhibition) at 1uM” value worked out at 11.9%.

With `CC(C)N(C(=O)COC(=O)c1ccc(O)cc1)C(C)C`, the “hERG current change (%, negative = inhibition) at 1uM” value turned out to be 2.03%.

For the compound `CCOc1ccc(NC(=O)CN(C)C(=O)C2CCCC2)cc1OCC`, the “hERG current change (%, negative = inhibition) at 1uM” value stood at 16.1%.

In the case of `O=P(Nc1ccccc1)(Nc1ccccc1)Oc1ccccc1`, the “hERG current change (%, negative = inhibition) at 1uM” value amounted to 12.8%.

For `Cc1oc(-c2ccc(Cl)cc2)nc1CS(=O)CC(=O)NCCCN1CCCC(C)C1` (centres unmarked), the “hERG current change (%, negative = inhibition) at 1uM” value turned out to be 16.3%.

Take `COc1cc(OC)cc(C(=O)Nc2ccc(-c3nc4ccccc4o3)c(O)c2)c1`: the “hERG current change (%, negative = inhibition) at 1uM” value came out at 4.93%.

In the case of `N#CC(C#N)=C1C=CC=CN1/C(=C\c1ccco1)C(=O)c1ccc(Br)cc1`, the “hERG current change (%, negative = inhibition) at 1uM” value is on record as -4.87%.

As to `COc1ccccc1OCCCCCCN1CCN(C)CC1.O=C(O)C(=O)O`, the “hERG current change (%, negative = inhibition) at 1uM” value turned out to be 12.5%.

As to `Cc1ccc(NC(=O)c2cccc(S(=O)(=O)N3CCCc4ccccc43)c2)nc1`, the “hERG current change (%, negative = inhibition) at 1uM” value is 3.74%.

`O=C(Oc1ccc(OC(=O)N2CCCCC2)cc1)c1ccccc1`: the “hERG current change (%, negative = inhibition) at 1uM” value is 4.04%.

As to `CCN(Cc1ccc(OC)c(F)c1)C(=O)C1CCCO1` (centres unmarked), the “hERG current change (%, negative = inhibition) at 1uM” value is given as 18.7%.

Regarding `COc1nc(N2CCOCC2)nc(C)c1[N+](=O)[O-]`, the “hERG current change (%, negative = inhibition) at 1uM” value stood at 5.25%.

Regarding `C/C(=N\Nc1ccccc1Cl)c1ccc(-n2ccnc2)cc1`, the “hERG current change (%, negative = inhibition) at 1uM” value was 7.67%.

In the case of `CN=C1SC(CC(=O)Nc2sc3c(c2C#N)CCCC3)C(=O)N1C` (centres unmarked), the “hERG current change (%, negative = inhibition) at 1uM” value worked out at 20.4%.

In the case of `COC(=O)C1CCCCN1C(=O)c1ccc2oc(C(C)C)nc2c1` (centres unmarked), the “hERG current change (%, negative = inhibition) at 1uM” value is 11.6%.

On to `COc1cccc(C(=O)N2CCN(Cc3ccccn3)CC2)c1.O=C(O)C(=O)O`, for which the “hERG current change (%, negative = inhibition) at 1uM” value was determined as 18%.

For `Cc1ccnc(NC(=O)CCC(=O)N(CC(=O)NC(C)(C)C)c2ccc3c(c2)OCCO3)c1`, the “hERG current change (%, negative = inhibition) at 1uM” value was determined as 13.7%.

Regarding `O=C(O)c1c(Cl)cccc1Cl`, the “hERG current change (%, negative = inhibition) at 1uM” value amounted to 16.6%.

With `CCc1nnc(NC(=O)C23CC4CC(CC(C4)C2)C3)s1`, the “hERG current change (%, negative = inhibition) at 1uM” value is recorded as 14.8%.

As for `CC(Sc1nnnn1-c1ccccc1)C(=O)NC1CCCC1` (centres unmarked), the “hERG current change (%, negative = inhibition) at 1uM” value is reported as 3.59%.

On to `CC1=CSC2=NC(C(F)(F)F)(C(F)(F)F)NC(=O)N12`, for which the “hERG current change (%, negative = inhibition) at 1uM” value turned out to be 9.38%.

On to `CCOc1ccc(NC(=O)CN(C)C(=O)c2ccc(OCC3CCCO3)cc2)cc1OCC` (centres unmarked), for which the “hERG current change (%, negative = inhibition) at 1uM” value is on record as 2.54%.

Regarding `Cc1ccc(-n2ncc3ccccc3c2=O)cc1Cl`, the “hERG current change (%, negative = inhibition) at 1uM” value is recorded as 2.9%.

Turning to `Cc1cc(O)c(-c2n[nH]c3c2C(c2cccc(O)c2)N(Cc2cccnc2)C3=O)cc1Cl` (centres unmarked), the “hERG current change (%, negative = inhibition) at 1uM” value is on record as 14.9%.

As to `O=C(NCCc1ccccc1)c1n[nH]c2ccccc12`, the “hERG current change (%, negative = inhibition) at 1uM” value is on record as 10.5%.

With `O=C1c2ccccc2C(Nc2ccccc2)N1c1cccnc1` (centres unmarked), the “hERG current change (%, negative = inhibition) at 1uM” value was -6.69%.

For the compound `COC(=O)CSc1[nH]c2cc(C)ccc2c1[N+](=O)[O-]`, the “hERG current change (%, negative = inhibition) at 1uM” value worked out at 17.9%.

As to `COc1cc2c(cc1NC(=O)CSc1nc3ccccc3[nH]1)oc1ccccc12`, the “hERG current change (%, negative = inhibition) at 1uM” value was found to be 22.5%.

Regarding `Cc1nc(C(=O)N2CCc3c([nH]c4ccccc34)C2c2ccccn2)cs1` (centres unmarked), the “hERG current change (%, negative = inhibition) at 1uM” value was found to be 14.7%.

For `COCCn1c(SC(C(=O)Nc2cc(C)ccc2OC)c2ccccc2)nnc1-c1ccc(Cl)cc1` (centres unmarked), the “hERG current change (%, negative = inhibition) at 1uM” value turned out to be 4.16%.

As to `C#CC[N+]1(CC#Cc2ccccc2)CCOCC1.[I-]`, the “hERG current change (%, negative = inhibition) at 1uM” value turned out to be 8.62%.

Turning to `Cn1c(=O)c2c(nc(NCCNC(=O)c3ccco3)n2Cc2ccccc2)n(C)c1=O`, the “hERG current change (%, negative = inhibition) at 1uM” value is 6.97%.

For the compound `COc1ccc(S(=O)(=O)N2CCOCC2)cc1NC(=O)c1cccs1`, the “hERG current change (%, negative = inhibition) at 1uM” value is recorded as 8.63%.

`O=C(CN1CCN(c2ccccc2F)CC1)N1N=CCC1c1ccccc1` (centres unmarked): the “hERG current change (%, negative = inhibition) at 1uM” value was 7.86%.

With `CCN(CC)S(=O)(=O)c1cc(NC(=O)CSc2nc3c(cc2C#N)C(=O)CC(C)(C)C3)ccc1C`, the “hERG current change (%, negative = inhibition) at 1uM” value came out at 11.5%.

Turning to `Cc1ccc(OCc2cc(C(=O)NC(C)Cc3cccc(C)n3)no2)cn1` (centres unmarked), the “hERG current change (%, negative = inhibition) at 1uM” value worked out at 17.6%.

Consider `CC(C)=NOC(=O)c1ccc(-c2ccccc2)cc1`, for which the “hERG current change (%, negative = inhibition) at 1uM” value worked out at 13.4%.

As to `O=C(NCc1ccccc1)/C(=N\O)c1ccccc1`, the “hERG current change (%, negative = inhibition) at 1uM” value was found to be 10.3%.

Take `Cc1ccc(NS(=O)(=O)c2ccc(-c3coc(C)n3)cc2)c(C)c1`: the “hERG current change (%, negative = inhibition) at 1uM” value amounted to 11.9%.

Consider `O=C(NCCN1C(=O)S/C(=C\c2ccccc2Cl)C1=O)C1=COCCO1`, for which the “hERG current change (%, negative = inhibition) at 1uM” value is given as -1.44%.

With `Br.CC(=O)Nc1nc(C)c(-c2csc(Nc3ccc(O)cc3)n2)s1`, the “hERG current change (%, negative = inhibition) at 1uM” value is reported as -6.54%.

Take `Cc1cccc(NC(=O)Cn2cnc3c(cnn3-c3ccc(F)cc3)c2=O)c1C`: the “hERG current change (%, negative = inhibition) at 1uM” value was found to be 17.4%.

The record behind these values is PMC4336329 (PLoS ONE, 2015).
